Patent US7592316B2, “Peptides as NS3-serine protease inhibitors of hepatitis C virus” (Schering Corporation, priority 2000, dated 2009)

Target: HCV NS3/NS4A protease (strain 1a) (Hepatitis C virus genotype 1a, UniProt P27958)
Test: biochemical
Conditions: Compounds prepared by Solid Phase Synthesis, Table 3; read-out: Ki* CLASS
Protocol: Assay for HCV Protease Inhibitory Activity:
Spectrophotometric Assay Spectrophotometric assay for the HCV serine protease was performed on the inventive compounds by following the procedure described by R. Zhang et al, Analytical Biochemistry, 270 (1999) 268-275, the disclosure of which is incorporated herein by reference. The assay based on the proteolysis of chromogenic ester substrates is suitable for the continuous monitoring of HCV NS3 protease activity. The substrates were derived from the P side of the NS5A-NS5B junction sequence (Ac-DTEDWX(Nva), where X=A or chromophoric alcohols (3- or 4-nitrophenol, 7-hydroxy-4-methyl-coumarin, or 4-phenylazophenol). Presented below are the synthesis, characterization and application of these novel spectrophotometric ester substrates to high throughput screening and detailed kinetic evaluation of HCV NS3 protease inhibitors.
Protein concentrations were determined by the Biorad dye method using recombinant HCV protease standards previously quantified by amino acid analysis. Prior to assay initiation, the enzyme storage buffer (50 mM sodium phosphate pH 8.0, 300 mM NaCl, 10% glycerol, 0.05% lauryl maltoside and 10 mM DTT) was exchanged for the assay buffer (25 mM MOPS pH 6.5, 300 mM NaCl, 10% glycerol, 0.05% lauryl maltoside, 5 μM EDTA and 5 μM DTT) utilizing a Biorad Bio-Spin P-6 prepacked column.
Protease Assay: HCV protease assays were performed at 30° C. using a 200 μl reaction mix in a 96-well microtiter plate. Assay buffer conditions (25 mM MOPS pH 6.5, 300 mM NaCl, 10% glycerol, 0.05% lauryl maltoside, 5 μM EDTA and 5 μM DTT) were optimized for the NS3/NS4A heterodimer (D. L. SalI et al, ibid.)). […] Fifty μls of prewarmed protease (12 nM, 30° C.) in assay buffer, was then used to initiate the reaction (final volume 200 μl). The plates were monitored over the length of the assay (60 minutes) for change in absorbance at the appropriate wavelength (340 nm for 3-Np and HMC, 370 nm for PAP, and 400 nm for 4-Np) using a Spectromax Plus microtiter plate reader equipped with a monochrometer (acceptable results can be obtained with plate readers that utilize cutoff filters). Proteolytic cleavage of the ester linkage between the Nva and the chromophore was monitored at the appropriate wavelength against a no enzyme blank as a control for non-enzymatic hydrolysis. The evaluation of substrate kinetic parameters was performed over a 30-fold substrate concentration range (˜6-200 μM). Initial velocities were determined using linear regression and kinetic constants were obtained by fitting the data to the Michaelis-Menten equation using non-linear regression analysis (Mac Curve Fit 1.1, K. Raner). Turnover numbers (kcat) were calculated assuming the enzyme was fully active.
The resulting data were fitted using linear regression and the resulting slope, 1/(Ki*(1+[S] o/Km), was used to calculate the Ki* value.

Compound	Ki
CCCC(NC(=O)[C@@H]1C[C@@H](OC(C)(C)C)CN1C(=O)[C@@H](NC(=O)Cc1ccccc1)C1CCCCC1)C(=O)C(=O)NCC(=O)NC(C(N)=O)c1cc(C)cc(C)c1 (stereo partly shown)	101 to 1000 nM
CCCC(NC(=O)[C@@H]1C[C@@H](OC(C)(C)C)CN1C(=O)[C@@H](NC(=O)c1c(F)cccc1F)C1CCCCC1)C(=O)C(=O)NCC(=O)NC(C(N)=O)c1cc(C)cc(C)c1 (stereo partly shown)	101 to 1000 nM
CCCC(NC(=O)[C@@H]1C[C@@H](OC(C)(C)C)CN1C(=O)[C@@H](NC(=O)c1ccccc1C(=O)O)C1CCCCC1)C(=O)C(=O)NCC(=O)NC(C(N)=O)c1cc(C)cc(C)c1 (stereo partly shown)	101 to 1000 nM
CCCC(NC(=O)[C@@H]1C[C@@H](OC(C)(C)C)CN1C(=O)[C@@H](NC(=O)c1c(F)c(F)c(F)c(F)c1C(=O)O)C1CCCCC1)C(=O)C(=O)NCC(=O)NC(C(N)=O)c1cc(C)cc(C)c1 (stereo partly shown)	1 to 100 nM
CCCC(NC(=O)[C@@H]1C[C@@H](OC(C)(C)C)CN1C(=O)[C@@H](NC(=O)OCC(C)C)C1CCCCC1)C(=O)C(=O)NCC(=O)NC(C(N)=O)c1cc(C)cc(C)c1 (stereo partly shown)	101 to 1000 nM
CCCC(NC(=O)[C@@H]1C[C@@H](OC(C)(C)C)CN1C(=O)[C@@H](NC(=O)c1c(F)cccc1F)C1CCCCC1)C(=O)C(=O)NCC(=O)NC(CC(N)=O)c1ccccc1 (stereo partly shown)	> 1000 nM
CCCC(NC(=O)[C@@H]1C[C@@H](OC(C)(C)C)CN1C(=O)[C@@H](NC(=O)c1ccccc1C(=O)O)C1CCCCC1)C(=O)C(=O)NCC(=O)NC(CC(N)=O)c1ccccc1 (stereo partly shown)	> 1000 nM
CCCC(NC(=O)[C@@H]1C[C@@H](OC(C)(C)C)CN1C(=O)[C@@H](NC(=O)c1c(F)c(F)c(F)c(F)c1C(=O)O)C1CCCCC1)C(=O)C(=O)NCC(=O)NC(CC(N)=O)c1ccccc1 (stereo partly shown)	101 to 1000 nM
CCCC(NC(=O)[C@@H]1C[C@@H](OC(C)(C)C)CN1C(=O)[C@@H](NC(=O)OCC(C)C)C1CCCCC1)C(=O)C(=O)NCC(=O)NC(CC(N)=O)c1ccccc1 (stereo partly shown)	> 1000 nM
CCCC(NC(=O)[C@@H]1C[C@@H](OC(C)(C)C)CN1C(=O)[C@@H](NC(=O)c1c(F)cccc1F)C1CCCCC1)C(=O)C(=O)NCC(=O)NC(C(N)=O)c1cccc2c1OCO2 (stereo partly shown)	101 to 1000 nM
CCCC(NC(=O)[C@@H]1C[C@@H](OC(C)(C)C)CN1C(=O)[C@@H](NC(=O)c1ccccc1C(=O)O)C1CCCCC1)C(=O)C(=O)NCC(=O)NC(C(N)=O)c1cccc2c1OCO2 (stereo partly shown)	101 to 1000 nM
CCCC(NC(=O)[C@@H]1C[C@@H](OC(C)(C)C)CN1C(=O)[C@@H](NC(=O)c1c(F)c(F)c(F)c(F)c1C(=O)O)C1CCCCC1)C(=O)C(=O)NCC(=O)NC(C(N)=O)c1cccc2c1OCO2 (stereo partly shown)	101 to 1000 nM
CCCC(NC(=O)[C@@H]1C[C@@H](OC(C)(C)C)CN1C(=O)[C@@H](NC(=O)OCC(C)C)C1CCCCC1)C(=O)C(=O)NCC(=O)NC(C(N)=O)c1cccc2c1OCO2 (stereo partly shown)	101 to 1000 nM
CCCC(NC(=O)[C@@H]1C[C@@H](OC(C)(C)C)CN1C(=O)[C@@H](NC(=O)c1c(F)cccc1F)C1CCCCC1)C(=O)C(=O)NCC(=O)NC(C(N)=O)c1cccc(C)c1 (stereo partly shown)	101 to 1000 nM
CCCC(NC(=O)[C@@H]1C[C@@H](OC(C)(C)C)CN1C(=O)[C@@H](NC(=O)c1ccccc1C(=O)O)C1CCCCC1)C(=O)C(=O)NCC(=O)NC(C(N)=O)c1cccc(C)c1 (stereo partly shown)	101 to 1000 nM
CCCC(NC(=O)[C@@H]1C[C@@H](OC(C)(C)C)CN1C(=O)[C@@H](NC(=O)c1c(F)c(F)c(F)c(F)c1C(=O)O)C1CCCCC1)C(=O)C(=O)NCC(=O)NC(C(N)=O)c1cccc(C)c1 (stereo partly shown)	101 to 1000 nM
CCCC(NC(=O)[C@@H]1C[C@@H](OC(C)(C)C)CN1C(=O)[C@@H](NC(=O)OCC(C)C)C1CCCCC1)C(=O)C(=O)NCC(=O)NC(C(N)=O)c1cccc(C)c1 (stereo partly shown)	101 to 1000 nM

Same assay, conditions: Ki* Range, Table 5; HCV NS3/NS4A protease, 30° C., pH 6.5

Compound	Ki
C=CCCC(NC(=O)[C@@H]1[C@H]2[C@@H](CN1C(=O)[C@@H](NC(=O)Oc1ccccc1)C1Cc3ccccc3C1)C2(C)C)C(=O)C(=O)NCC=C (stereo partly shown)	101 to 1000 nM

Same assay, conditions: Ki* Range, Table 5; HCV NS3/NS4A protease, spectrophotometric assay, 30° C., pH 6.5

Compound	Ki
CCCC(NC(=O)C1C2C(CN1C(=O)C(NC(=O)Oc1ccc(C(=O)OC)cc1)C1CCCCC1)C2(C)C)C(=O)C(N)=O (stereo not shown)	101 to 1000 nM

Same assay, conditions: Table 4; HCV NS3/NS4A protease, spectrophotometric assay, 30° C., pH 6.5; read-out: Ki* Range

Compound	Ki
CCCC(NC(=O)[C@@H]1C[C@@H](NC(=O)Nc2ccccc2)CN1C(=O)[C@@H](NC(=O)c1ccccc1C(=O)O)C1CCCCC1)C(=O)C(=O)NCC(=O)N[C@H](C(N)=O)c1ccccc1 (stereo partly shown)	> 1000 nM
CCC[C@@H](NC(=O)[C@@H]1CC(C)(C)CN1C(=O)[C@@H](NC(=O)O[C@@H](C)C(C)C)C1CCCCC1)C(=O)C(=O)NCC(=O)N[C@H](C(=O)N(C)C)c1ccccc1	1 to 100 nM
CCCC(NC(=O)C1CC(C)(C)CN1C(=O)[C@@H](NC(=O)O[C@H](C)C(C)C)C1CCCCC1)C(=O)C(=O)NCC(=O)NC(C(=O)N(C)C)c1ccccc1 (stereo partly shown)	1 to 100 nM
CC(C)COC(=O)N[C@H](C(=O)N1C[C@@H]2C([C@H]1C(=O)N[C@@H](CC(C)C)C(=O)C(=O)NCC(=O)N[C@H](C(=O)N(C)C)c1ccccc1)C2(C)C)C1(C)CCCCC1 (stereo partly shown)	1 to 100 nM
CCC[C@@H](NC(=O)[C@@H]1C2[C@@H](CN1C(=O)[C@@H](NC(=O)OCC(C)C)C1(C)CCCCC1)C2(C)C)C(=O)C(=O)NCC(=O)N[C@H](C(=O)N(C)C)c1ccccc1 (stereo partly shown)	1 to 100 nM
CCC[C@@H](NC(=O)[C@@H]1CC(C)(C)CN1C(=O)[C@@H](NC(=O)OCC(C)C)C1CCC(C)(C)CC1)C(=O)C(=O)NCC(=O)N[C@H](C(=O)N(C)C)c1ccccc1	1 to 100 nM
CCCC(NC(=O)[C@@H]1[C@@H](C)CCN1C(=O)[C@@H](NC(=O)OCC(C)C)C1CCCCC1)C(=O)C(=O)NCC(=O)NC(C(=O)N(C)C)c1ccccc1 (stereo partly shown)	1 to 100 nM
CCCC(NC(=O)[C@@H]1CC(C)(C)CN1C(=O)[C@@H](NC(=O)OCC(C)C)C1CCCCC1)C(=O)C(=O)N[C@@H](C(C)=O)C(=O)N[C@H](C(=O)O)c1ccccc1 (stereo partly shown)	> 1000 nM
CCCC(NC(=O)[C@@H]1C[C@@H](CNC(=O)c2ccccc2)CN1C(=O)[C@@H](NC(=O)OCC(C)C)C1CCCCC1)C(=O)C(=O)NCC(=O)N[C@H](C(N)=O)c1ccccc1 (stereo partly shown)	1 to 100 nM
CCCC(NC(=O)[C@@H]1C[C@@H](CNC(=O)c2cccc(Oc3ccccc3)c2)CN1C(=O)[C@@H](NC(=O)OCC(C)C)C1CCCCC1)C(=O)C(=O)NCC(=O)N[C@H](C(N)=O)c1ccccc1 (stereo partly shown)	101 to 1000 nM
CCCC(NC(=O)[C@@H]1C[C@@H](CNS(=O)(=O)c2ccccc2)CN1C(=O)[C@@H](NC(=O)OCC(C)C)C1CCCCC1)C(=O)C(=O)NCC(=O)N[C@H](C(N)=O)c1ccccc1 (stereo partly shown)	1 to 100 nM
CCCC(NC(=O)C1C[C@@H](NS(=O)(=O)c2cccc(Cl)c2)CN1C(=O)[C@@H](NC(=O)OCC(C)C)C1CCCCC1)C(=O)C(=O)NCC(=O)N[C@H](C(N)=O)c1ccccc1 (stereo partly shown)	101 to 1000 nM
CCCC(NC(=O)C1C[C@@H](NS(=O)(=O)c2ccc(C)cc2)CN1C(=O)[C@@H](NC(=O)OCC(C)C)C1CCCCC1)C(=O)C(=O)NCC(=O)N[C@H](C(N)=O)c1ccccc1 (stereo partly shown)	101 to 1000 nM
CCCC(NC(=O)[C@@H]1C[C@@H](NC(=O)Nc2ccccc2)CN1C(=O)[C@@H](NC(=O)OCC(C)C)C1CCCCC1)C(=O)C(=O)NCC(=O)N[C@H](C(N)=O)c1ccccc1 (stereo partly shown)	1 to 100 nM
CC(C)COC(=O)N[C@H](C(=O)N1CC2C([C@H]1C(=O)N[C@@H](CC(C)C)C(=O)C(=O)NCC(=O)N[C@H](C(=O)N(C)C)c1ccccc1)C2(C)C)C(C)(C)C (stereo partly shown)	1 to 100 nM
CC(C)C[C@H](NC(=O)[C@@H]1C2[C@H](CN1C(=O)[C@@H](NC(=O)OC(C)C)C(C)(C)C)C2(C)C)C(=O)C(=O)NCC(=O)N[C@H](C(=O)N(C)C)c1ccccc1 (stereo partly shown)	1 to 100 nM
CCC[C@H](NC(=O)[C@@H]1C2[C@H](CN1C(=O)[C@@H](NC(=O)OC(C)C)C(C)(C)C)C2(C)C)C(=O)C(=O)NCC(=O)N[C@H](C(=O)N(C)C)c1ccccc1 (stereo partly shown)	1 to 100 nM
CCCC(NC(=O)[C@@H]1CCC(C)N1C(=O)[C@@H](NC(=O)OC(C)C)C(C)(C)C)C(=O)C(=O)NCC(=O)N[C@H](C(=O)N(C)C)c1ccccc1 (stereo partly shown)	1 to 100 nM
